In experiment [1] the test system is NO production in rat primary astrocytes. As to conditions: for % Inhibition: of LPS (1.0 μg/ml)-induced nitrite, L-NMA 0.1 mM with LPS.
For experiment [2] the test system is unchanged. Put plainly: cells. As to conditions: Astrocyte; for inhibition at 20000 µM: Astrocytes, NAC 20 mM 2 h prior.
Setting [3] is: LPS 1.0 μg/ml, 24 h, forskolin 10 μM, 1,9-dideoxyforskolin 10 μM, isoproterenol 10 μM, IBMX mM, Rolipram 10 μM, added 15 min prior to LPS.
The mark [4] stands for this setting: of LPS-induced nitrite, forskolin 10 μM, isoproterenol 10 μM, IBMX mM, Rolipram 10 μM, 15 min prior to LPS.
Setting [5] is: LPS 1.0 μg/ml, 24 h, serum-free, arginase 100 units/ml, L-NMA 0.1 mM added with LPS, lovastatin, mevastatin 10 μM 8 h before LPS.
The mark [6] stands for this setting: 24 h, arginase 100 units/ml, lovastatin, mevastatin 10 μM 8 h before LPS.

Where two headings read alike, the source gives them in different places.

On to `C=C[C@@]1(C)CC(=O)[C@@H]2[C@@]3(C)CCCC(C)(C)[C@@H]3[C@H](O)[C@H](OC(C)=O)[C@@]2(C)O1` [dideoxyforskolin, 1,9-dideoxyforskolin], for which, in experiment [1] (setting [3]), the Nitrite is given as 31.2 ± 4.1 nmol/mg/24 h.
Compound `COC[C@@H]([C@H](O)[C@H](O)C(=O)NCC[C@H](C)c1nc(/C=C/C[C@@H]2O[C@]3(C[C@@H](O)[C@@H]2C)O[C@H]([C@H](C[C@H](O)[C@H](C)[C@H](O)[C@H](C)/C=C(C)/C(C)=C/C=C/C(C)=C\C#N)OC)[C@H](OP(=O)(O)O)C3(C)C)co1)N(C)C` [Calyculin A] came in with a Nitrite in experiment [1] of 67.8 ± 7.3 nmol/rag/24 h.
In experiment [1] (setting [3]), `COc1ccc(C2CNC(=O)C2)cc1OC1CCCC1` (centres unmarked) [Rolipram] had a Nitrite of 6.2 ± 1.2 nmol/mg/24 h. Besides, the inhibition at 10 µM in experiment [2] (setting [4]) stood at 80%.
On to `O=C([O-])Cc1ccccc1.[Na+]` [NaPA, sodium salt of phenylacetic acid], for which the “Production of NO” value in experiment [1] was 5.4 ± 0.6 nmol/24 h/mg protein.
Take `CC(=O)N[C@@H](CS)C(=O)O` [NAC, N-acetyl cysteine]: the Nitrite in experiment [1] (Astrocytes, stimulus IFN-γ, NAC 20 mM 2 h prior, 24 h) is given as 4.4 ± 1.2 nmol/mg/24 h; in experiment [1] (Astrocytes, stimulus IL-1β, NAC 20 mM 2 h prior, 24 h) it was 7.8 ± 1.8 nmol/mg/24 h; in experiment [1] (Astrocytes, stimulus LPS + IFN-γ, NAC 20 mM 2 h prior, 24 h) it was 23.5 ± 1.4 nmol/mg/24 h; in experiment [1] (Astrocytes, stimulus LPS + IL-1β, NAC 20 mM 2 h prior, 24 h), 4.5 ± 2.8 nmol/mg/24 h; in experiment [1] (Astrocytes, stimulus LPS + TNF-α, NAC 20 mM 2 h prior, 24 h) it was 15.2 ± 1.5 nmol/mg/24 h; in experiment [1] (Astrocytes, stimulus LPS, NAC 20 mM 2 h prior, 24 h), 5.6 ± 1.6 nmol/mg/24 h. The Nitrite is on record as 14.1 ± 2.04 nmol/mg/24 h in experiment [1] (Astrocytes, stimulus TNF-α + IFN-γ, NAC 20 mM 2 h prior, 24 h); 5.2 ± 0.7 nmol/mg/24 h in experiment [1] (Astrocytes, stimulus TNF-α + IL-1β, NAC 20 mM 2 h prior, 24 h); 10.5 ± 2.3 nmol/mg/24 h in experiment [1] (Astrocytes, stimulus TNF-α, NAC 20 mM 2 h prior, 24 h). The inhibition at 20000 µM in experiment [2] (stimulus IFN-γ) stood at 80%; in experiment [2] (stimulus IL-1β) it was 74%; in experiment [2] (stimulus LPS + IFN-γ), 54%; in experiment [2] (stimulus LPS + IL-1β), 79%; in experiment [2] (stimulus LPS + TNF-α), 64%; in experiment [2] (stimulus LPS), 80%. In addition, the inhibition at 20000 µM in experiment [2] (stimulus TNF-α + IFN-γ) was 63%; in experiment [2] (stimulus TNF-α + IL-1β), 86%; in experiment [2] (stimulus TNF-α), 55%.
In general, Inhibition refers to the relative decrease from the control value, in per cent. A high value points to a strong effect. For the compound `CC(C)Cn1c(=O)n(C)c(=O)c2[nH]cnc21` [IBMX, 3-isobutyl-1-methylxanthine], in experiment [1] (setting [3]), the Nitrite is reported as 6.8 ± 1.3 nmol/mg/24 h. This compound also gave an Inhibition in experiment [1] (setting [4]) of 78%.
In experiment [1] (setting [3]), `C=C[C@@]1(C)CC(=O)[C@]2(O)[C@@]3(C)[C@@H](O)CCC(C)(C)[C@@H]3[C@H](O)[C@H](OC(C)=O)[C@@]2(C)O1` [forskolin] displayed a Nitrite of 4.7 ± 1.2 nmol/mg/24 h. In addition, in experiment [2] (24 h, read-out: inhibition of NO production, forskolin 0.1 μM (lowest dose with significant effect), LPS 1 μg/ml, 24 h), the inhibition at 0.1 µM worked out at 30%. Besides, the inhibition at 10 µM was about 90% in experiment [2] (24 h, read-out: inhibition of NO production, forskolin 10 μM, LPS 1 μg/ml, 24 h) and 85% in experiment [2] (setting [4]).
On to `CC1(C)[C@H](C(=O)O[C@H](C#N)c2cccc(Oc3ccccc3)c2)[C@@H]1C=C(Br)Br` [Deltamethrin], for which the Nitrite in experiment [1] was 26.8 ± 2.9 nmol/rag/24 h.
What is called % Inhibition is the change of the read-out against control, counted positive when it falls. Read a high % Inhibition as strong suppression. In the case of `CNC(=N)NCCC[C@H](N)C(=O)O` [L-NMA, N^G-methyl-L-arginine], the values for the Nitrite in experiment [1] and in experiment [1] (setting [5]) were 5.2 ± 0.4 nmol/rag/24 h and 5.5 ± 0.7 nmol/mg/24 h, respectively. Besides, the “% Inhibition” value in experiment [1] (setting [6]) amounted to 88%.
In the case of `CC(C)C(C(=O)OC(C#N)c1cccc(Oc2ccccc2)c1)c1ccc(Cl)cc1` (centres unmarked) [Fenvalerate], the Nitrite in experiment [1] was determined as 27.1 ± 2.1 nmol/rag/24 h.
`CC[C@H](C)C(=O)O[C@H]1CCC=C2C=C[C@H](C)[C@H](CC[C@@H]3C[C@@H](O)CC(=O)O3)[C@H]21` [Mevastatin]: the Nitrite is listed as 5.5 ± 0.5 nmol/mg/24 h in experiment [1] (setting [5]) and 2.8 ± 0.4 nmol/mg/24 h in experiment [1] (compound alone, no LPS, 24 h). The inhibition at 10 µM in experiment [2] (of LPS (1.0 μg/ml)-induced nitrite, 24 h, arginase 100 units/ml, L-NMA 0.1 mM with LPS, lovastatin, mevastatin 10 μM 8 h before LPS) worked out at 88%.
On to `Nc1ncnc2c1ncn2[C@@H]1O[C@@H]2COP(O)(=S)O[C@H]2[C@H]1O` (some centres unmarked) [(Sp)-cAMP], for which the “LPS- and/or cytokine-induced NO production” value in experiment [1] is given as “inhibited the LPS-stimulated NO production as nitrite”.
For `CC(C)NCC(O)c1ccc(O)c(O)c1` (centres unmarked) [isoproterenol], in experiment [1] (setting [3]), the Nitrite was determined as 8.1 ± 2.3 nmol/mg/24 h. For the same compound, in experiment [2] (setting [4]), the inhibition at 10 µM turned out to be 74%.
On to `CC1(C)C(C=C(Cl)Cl)C1C(=O)OC(C#N)c1cccc(Oc2ccccc2)c1` (centres unmarked) [Cypermethrin], for which, in experiment [1], the Nitrite turned out to be 27.6 ± 2.7 nmol/rag/24 h.
Turning to `CC[C@H](C)C(=O)O[C@H]1C[C@@H](C)C=C2C=C[C@H](C)[C@H](CC[C@@H]3C[C@@H](O)CC(=O)O3)[C@H]21` [Lovastatin], the “inhibition of NO production” value in experiment [1] (8 to 10 h of preincubation with lovastatin) is “about 90%”. In addition, the “Production of NO” value in experiment [1] (Astrocytes, 10 μM lovastatin or 5 mM NaPA 8 h, then LPS 1.0 μg/ml, 24 h) is listed as 5.2 ± 0.4 nmol/24 h/mg protein. Besides, the Nitrite in experiment [1] (setting [5]) is 5.2 ± 0.5 nmol/mg/24 h; in experiment [1] (compound alone, no LPS, 24 h) it was 2.9 ± 0.3 nmol/mg/24 h. The “inhibition in LPS-induced NO production” value in experiment [1] (lovastatin added to the cells along with LPS) is 25%. Further, the “% Inhibition” value in experiment [1] (setting [6]) is reported as 90%.
